Measurements published in PubChem BioAssay (Tox21).
Several values for one entry are separate records, joined by “and”; a condition that tells them apart may be missing. Equal entries are not always repeated. This list was built around the results that the source calls inconclusive (neither active nor inactive); the mix of calls is not that of the screen. A potency beside an inconclusive call is a rough fit, not a confirmed value. More than one record can exist for a structure, and the calls need not agree. Activity calls are given as the source filed them. Unless noted, calls come from the whole dose curve; as a rule, active = well fitted curve in the direction sought with a large enough effect in the repeat runs; inconclusive = weak or mixed curves; inactive = no such curve, though single readings can be large; an effect the other way counts as inactive or inconclusive.

How the values were obtained:
[1] = qHTS assay to identify small molecule antagonists of the thyroid receptor (TR) signaling pathway (AID 743065); note: nearly all actives have a fitted effect of over 55% in size; for activity, negative = inhibition: % is set by controls: 0 for no effect and ±100 for the full control effect
Method in brief: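 Antagonism measured as loss of luciferase signal in GH3 cells stably carrying a TRE-luciferase reporter, co-treated with compound and T3 (1 nM final) for 23.5 h at 37 C. Viability was read in the same well by CellTiter-Fluor.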

[2] = target: Estrogen receptor (Homo sapiens) (UniProt P03372); experiment: qHTS assay to identify small molecule agonists of the estrogen receptor alpha (ER-alpha) signaling pathway using the BG1 cell line (AID 743079); conditions: BG1Luc4E2 cells, ERE-luciferase agonist, 22 h; activation: at 70.3 µM (top of the series) unless noted; note: nearly all actives have a fitted effect of over 20% in size; for activation: % is set by controls: 0 for no effect and ±100 for the full control effect
Sequence of UniProt P03372 (P03372 whole entry, looked up): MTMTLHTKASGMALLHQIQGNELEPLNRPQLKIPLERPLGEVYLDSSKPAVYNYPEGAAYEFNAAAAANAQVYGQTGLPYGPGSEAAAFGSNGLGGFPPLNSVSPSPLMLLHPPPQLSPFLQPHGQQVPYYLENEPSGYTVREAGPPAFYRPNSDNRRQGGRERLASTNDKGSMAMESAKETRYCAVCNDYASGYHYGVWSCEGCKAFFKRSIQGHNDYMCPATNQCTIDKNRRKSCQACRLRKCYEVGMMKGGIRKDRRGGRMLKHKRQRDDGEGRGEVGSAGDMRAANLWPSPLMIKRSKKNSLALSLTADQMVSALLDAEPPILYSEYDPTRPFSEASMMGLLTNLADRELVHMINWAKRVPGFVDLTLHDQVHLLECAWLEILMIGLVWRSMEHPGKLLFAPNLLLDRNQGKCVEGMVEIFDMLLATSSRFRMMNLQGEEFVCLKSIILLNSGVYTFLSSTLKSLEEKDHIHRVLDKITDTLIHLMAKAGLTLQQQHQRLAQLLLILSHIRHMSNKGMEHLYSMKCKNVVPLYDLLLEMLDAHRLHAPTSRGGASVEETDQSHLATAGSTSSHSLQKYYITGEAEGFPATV

[3] = qHTS assay to identify small molecule antagonists of the estrogen receptor alpha (ER-alpha) signaling pathway using the BG1 cell line (AID 743080; calls by dose curve;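 note: BG1 cells stimulated with 17beta-estradiol alongside compound; nearly all actives have a fitted effect of over 25% in size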); conditions: BG1Luc4E2 ERE-luciferase antagonist mode, luminescence; activity change, negative = inhibition: at 70.3 µM (top of the series) unless noted
Method in brief: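 Readout is ONE-Glo luminescence, taken 30 min at room temperature after reagent addition, preceded by a CellTiter-Fluor viability read; BG1-Luc-4E2 cells had received compound and 17beta-estradiol for 21.5 h at 37 C.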

[4] = target: Aryl hydrocarbon receptor (Homo sapiens) (UniProt P35869); experiment: qHTS assay to identify small molecule that activate the aryl hydrocarbon receptor (AhR) signaling pathway (AID 743085); note: nearly all actives have a fitted effect of over 15% in size
Sequence of UniProt P35869 (P35869 whole entry, looked up): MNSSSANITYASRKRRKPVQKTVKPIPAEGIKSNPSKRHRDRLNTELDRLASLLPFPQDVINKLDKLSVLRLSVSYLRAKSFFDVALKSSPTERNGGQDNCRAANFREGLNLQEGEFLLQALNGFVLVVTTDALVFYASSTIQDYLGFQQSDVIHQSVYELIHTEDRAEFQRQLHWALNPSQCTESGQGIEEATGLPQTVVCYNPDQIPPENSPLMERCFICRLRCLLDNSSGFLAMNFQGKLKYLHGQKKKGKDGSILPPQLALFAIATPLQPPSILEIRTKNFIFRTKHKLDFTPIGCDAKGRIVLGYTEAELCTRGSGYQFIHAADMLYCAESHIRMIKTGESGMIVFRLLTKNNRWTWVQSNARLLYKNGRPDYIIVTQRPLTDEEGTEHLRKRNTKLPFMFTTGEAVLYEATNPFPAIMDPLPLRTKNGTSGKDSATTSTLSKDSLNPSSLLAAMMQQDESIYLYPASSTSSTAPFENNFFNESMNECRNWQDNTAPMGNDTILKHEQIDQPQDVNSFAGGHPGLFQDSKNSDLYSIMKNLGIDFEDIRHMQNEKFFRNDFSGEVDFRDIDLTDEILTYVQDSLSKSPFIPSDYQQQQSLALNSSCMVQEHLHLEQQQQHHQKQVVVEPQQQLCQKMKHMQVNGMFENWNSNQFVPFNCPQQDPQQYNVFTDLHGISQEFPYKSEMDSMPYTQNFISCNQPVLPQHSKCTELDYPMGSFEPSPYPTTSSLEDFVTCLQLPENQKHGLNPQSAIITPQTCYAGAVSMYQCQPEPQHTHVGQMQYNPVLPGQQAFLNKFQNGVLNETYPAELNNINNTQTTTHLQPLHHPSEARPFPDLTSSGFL
Method in brief: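 Compounds were tested in HepG2 hepatocellular carcinoma cells harbouring a stably integrated luciferase gene under control of 20 DREs. Increased reporter signal after 24 h treatment at 37C was taken as AhR activation.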

[5] = qHTS assay to identify small molecule that activate the aryl hydrocarbon receptor (AhR) signaling pathway - cell viability counter screen (AID 743086); note: nearly all actives have a fitted effect of over 45% in size
Method in brief: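 Cytotoxicity counter screen: CellTiter-Fluor signal (30 min, 37 C) in 4000 HepG2 cells/well carrying the DRE-luciferase reporter, following 24 h compound exposure at 37 C.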

[6] = target: Peroxisome proliferator-activated receptor gamma (Homo sapiens) (UniProt P37231); experiment: qHTS assay to identify small molecule agonists of the peroxisome proliferator-activated receptor gamma (PPARg) signaling pathway (AID 743094; active = well fitted activation curve with a large enough effect in the signal ratio in the repeat runs, not every such curve was filed as active; inconclusive = weak or mixed curves, or effect the other way; inactive = no such curve, though single readings can be large or run the other way; the % refers to the signal ratio; for activation: % is set by controls: 0 for no effect and ±100 for the full control effect); conditions: HEK293H PPARg-UAS-bla, beta-lactamase FRET ratio, 17 h; activation: at 57 µM (top of the series) unless noted
Sequence of UniProt P37231 (P37231 whole entry, looked up): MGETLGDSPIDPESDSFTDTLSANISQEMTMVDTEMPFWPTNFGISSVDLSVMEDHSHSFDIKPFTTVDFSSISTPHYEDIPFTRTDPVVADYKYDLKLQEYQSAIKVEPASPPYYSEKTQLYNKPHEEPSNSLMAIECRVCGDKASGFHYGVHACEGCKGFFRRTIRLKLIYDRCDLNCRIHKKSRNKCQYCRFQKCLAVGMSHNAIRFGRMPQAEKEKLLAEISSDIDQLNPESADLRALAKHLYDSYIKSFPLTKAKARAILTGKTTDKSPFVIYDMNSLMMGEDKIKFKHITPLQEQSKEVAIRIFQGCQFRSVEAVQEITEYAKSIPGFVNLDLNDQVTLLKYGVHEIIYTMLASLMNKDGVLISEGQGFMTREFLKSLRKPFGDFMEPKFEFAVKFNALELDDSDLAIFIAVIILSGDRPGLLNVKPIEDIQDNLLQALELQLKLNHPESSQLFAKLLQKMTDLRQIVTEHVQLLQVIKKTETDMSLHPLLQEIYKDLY
Method in brief: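 Agonist activity was taken from a beta-lactamase reporter (FRET substrate, 1 h at room temperature) in HEK293H cells carrying a PPARg UAS-bla construct. Compounds in DMSO were incubated 17 h at 37C after a 5 h cell pre-incubation.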

[7] = target: Estrogen receptor (Homo sapiens) (UniProt P03372); experiment: qHTS assay to identify small molecule agonists of the estrogen receptor alpha (ER-alpha) signaling pathway (AID 743075; calls by dose curve;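 note: HEK293 GripTite cells with ER-alpha and UAS-driven beta-lactamase reporter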)
[8] = system: thyroid hormone receptor (rat, GH3 cells); experiment: qHTS assay to identify small molecule agonists of the thyroid receptor (TR) signaling pathway (AID 743066; calls by dose curve; for activation: % is set by controls: 0 for no effect and ±100 for the full control effect); conditions: GH3.TRE-Luc cells, TR agonist luciferase, 24 h; activation: at 83.9 µM (top of the series) unless noted
[9] = qHTS assay to identify small molecule antagonists of the estrogen receptor alpha (ER-alpha) signaling pathway - cell viability counter screen (AID 743074; calls by dose curve;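 note: HEK293 cells carrying ER-alpha-UAS-bla reporter stimulated with 17beta-estradiol; nearly all actives have a fitted effect of over 45% in size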)
[10] = qHTS assay to identify aromatase inhibitors - cell viability counter screen (AID 743084); conditions: MCF-7 aro ERE viability, CellTiter-Fluor, 24 h; activity change, negative = cytotoxicity: at 70.3 µM (top of the series) unless noted;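 note: cells stimulated with testosterone during compound exposure; nearly all actives have a fitted effect of over 55% in size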
[11] = qHTS assay to identify small molecule antagonists of the estrogen receptor alpha (ER-alpha) signaling pathway using the BG1 cell line - cell viability counter screen (AID 743081); conditions: BG1Luc4E2 viability, CellTiter-Fluor, 22 h; activity change, negative = cytotoxicity: at 70.3 µM (top of the series);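 note: compound given together with 17beta-estradiol as the ER stimulus; nearly all actives have a fitted effect of over 45% in size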
[12] = target: Aromatase (Homo sapiens) (UniProt P11511); experiment: qHTS assay to identify aromatase inhibitors (AID 743083); conditions: MCF-7 aro ERE, testosterone-driven ERE luciferase, 24 h; activity, negative = inhibition: at 70.3 µM (top of the series); note: nearly all actives have a fitted effect of over 55% in size
Sequence of UniProt P11511 (P11511 whole entry, looked up): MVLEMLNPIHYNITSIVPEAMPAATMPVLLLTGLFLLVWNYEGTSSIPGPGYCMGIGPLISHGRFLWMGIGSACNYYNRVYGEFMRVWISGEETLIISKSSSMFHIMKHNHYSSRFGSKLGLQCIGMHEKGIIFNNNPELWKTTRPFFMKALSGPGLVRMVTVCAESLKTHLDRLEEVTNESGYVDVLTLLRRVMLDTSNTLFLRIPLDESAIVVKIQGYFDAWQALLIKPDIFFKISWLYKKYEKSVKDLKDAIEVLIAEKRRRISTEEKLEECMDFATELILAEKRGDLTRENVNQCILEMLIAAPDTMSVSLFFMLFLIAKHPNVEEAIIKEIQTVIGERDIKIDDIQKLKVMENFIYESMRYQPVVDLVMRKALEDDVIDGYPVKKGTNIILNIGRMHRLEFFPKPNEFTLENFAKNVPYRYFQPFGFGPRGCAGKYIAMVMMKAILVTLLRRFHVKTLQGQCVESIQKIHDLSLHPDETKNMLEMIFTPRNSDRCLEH

[13] = target: Estrogen receptor (Homo sapiens) (UniProt P03372); experiment: qHTS assay to identify small molecule antagonists of the estrogen receptor alpha (ER-alpha) signaling pathway (AID 743069; active = well fitted curve in the direction sought with a large enough effect in the signal ratio in the repeat runs, not every such curve was filed as active; inconclusive = weak or mixed curves, or effect the other way; inactive = no such curve, though single readings can be large or run the other way; the % refers to the signal ratio); conditions: HEK293 ER-alpha-UAS-bla, beta-lactamase ratio, antagonist mode; activity, negative = inhibition: at 69.4 µM (top of the series) unless noted
Method in brief: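 Antagonist mode: compounds in DMSO were co-added with 17beta-estradiol to ER-alpha-bla HEK293 cells (2% charcoal-stripped serum) and left 18 h at 37C. Reporter inhibition was measured as FRET fluorescence after 2 h LiveBLAzer substrate at room temperature.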
Potency is the fitted concentration of half-maximal effect; tags give direction and shape of the fitted curve or compound fluorescence and quenching.

For CCN(CC)C(=O)C(C)Oc1cccc2ccccc12 (configuration not stated), the Potency [1] was inconclusive: 69.1 µM [inhibitor, single point] and inconclusive: 48.6 µM [inhibitor, partial curve, poor fit], the Potency [2] was inconclusive: 77 µM [inhibitor, single point] and the Potency [3] was inconclusive: 27.5 µM [falling, partial curve] and inconclusive: 27.3 µM [falling, partial curve]. For the same compound, the Potency [4] was active: 54.9 µM and active: 30.6 µM, the Potency [5] was inconclusive: 61.6 µM [falling, single point] and inconclusive: 77 µM [falling, single point] and the activation [6] was inconclusive: -13.7% [at 78.9 µM].
In the case of O=C(NC(=O)c1c(F)cccc1F)Nc1ccc(OC(F)(F)C(F)OC(F)(F)F)c(Cl)c1 (configuration not stated), the Potency [1] is reported as “inactive” and the Potency [7] is reported as inconclusive: 19 µM [falling, partial curve].
For Cc1cccc(N)c1, the Potency [8] was “inactive”, the Potency [9] was inconclusive: 62.1 µM [cytotoxic, single point] and the Potency [2] was “inactive”. For the same compound, the activity change, negative = cytotoxicity [10] was inconclusive: 34.6% [at 95 µM].
For CN(C)CCc1c[nH]c2cccc(O)c12, the Potency [1] was inconclusive: 60.5 µM [inhibitor, partial curve], the Potency [11] was inconclusive: 27 µM [cytotoxic, single point] and the Potency [12] was inconclusive: 5.39 µM [inhibitor, partial curve, poor fit]. The Potency [6] was “inactive”.
In the case of O=[N+]([O-])c1ccccc1O, the Potency [1] is reported as “inactive”, the Potency [9] is reported as inconclusive: 5.49 µM [rising, full curve, poor fit] and the Potency [10] is reported as inconclusive: 76.7 µM [rising, partial curve, poor fit].
In the case of CC1=C2C[C@H]3[C@@H](CC=C4C[C@@H](O)CC[C@@]43C)[C@@H]2CC[C@]12O[C@@H]1C[C@H](C)CN[C@H]1[C@H]2C, the Potency [1] is reported as inconclusive: 13.3 µM [inhibitor, partial curve, poor fit], the Potency [11] is reported as inconclusive: 29.8 µM [cytotoxic, partial curve] and the Potency [12] is reported as “inactive”. The Potency [10] was inconclusive: 26.6 µM [cytotoxic, partial curve] and the Potency [5] was inconclusive: 11.9 µM [falling, full curve, poor fit].
With CCC1(c2ccccc2)C(=O)N=C(O)NC1=O (configuration not stated) the Potency [8] was inconclusive: 74.9 µM [activator, partial curve, poor fit] and the Potency [2] was “inactive”.
For Clc1ccc(Cl)c(Cl)c1, the Potency [8] was active: 30.6 µM and the Potency [9] was inconclusive: 1.9 µM [cytotoxic, full curve, poor fit].
In the case of O=C(Cl)OCCOCCOC(=O)Cl, the Potency [8] is reported as active: 27.3 µM, the Potency [9] is reported as inconclusive: 15.5 µM [rising, partial curve, poor fit] and the Potency [7] is reported as “inactive”.
With CCN(CC)C(=O)N[C@@H]1C=C2c3cccc4[nH]cc(c34)C[C@@H]2N(C)C1 the Potency [1] was inconclusive: 23.7 µM [inhibitor, partial curve], the activity change, negative = inhibition [3] was inconclusive: -9.46% and the Potency [12] was inconclusive: 2.66 µM [inhibitor, partial curve, poor fit]. The Potency [4] was inconclusive: 9.44 µM [activator, partial curve].
With COP(=S)(OC)SCN1C(=O)c2ccccc2C1=O the Potency [1] was inconclusive: 68.6 µM [inhibitor, partial curve, poor fit] and the activation [6] was inconclusive: 9.14%.
With Cc1ncc(C[n+]2csc(CCO)c2C)c(N)n1 the activation [8] was inconclusive: -0.0142% [phenotype inactive], the Potency [9] was inconclusive: 0.174 µM [rising, full curve, poor fit] and the Potency [11] was inconclusive: 7.17 µM [rising, partial curve]. The Potency [10] was inconclusive: 0.0202 µM [rising, full curve, poor fit].
In the case of C=CC[C@]1(O)CC[C@H]2[C@@H]3CCC4=CC(=O)CCC4=C3C=C[C@@]21C, the Potency [1] is reported as active: 10.6 µM, the Potency [9] is reported as inconclusive: 10.7 µM [rising, single point] and the Potency [2] is reported as active: 1.33 µM. For the same compound, the Potency [3] was active: 29.8 µM, the Potency [12] was inconclusive: 16.8 µM [inhibitor, partial curve, poor fit] and the Potency [6] was inconclusive: 23.9 µM [fluorescent].
With CNC(=O)Oc1cccc2ccccc12 the Potency [13] was inconclusive: 10.7 µM [activator, full curve, poor fit], the Potency [9] was inconclusive: 7.69 µM [rising, full curve, poor fit] and the activity change, negative = inhibition [3] was inconclusive: 13.6%. The Potency [12] was “inactive” and the Potency [4] was active: 5.31 µM and active: 54 µM and active: 27.3 µM.
